In all, about 110,000 compounds went through this assay and about 230 (0.21%) showed an effect of 50% or more. The list shows a part of the results.
The compounds below were run against DPAP1 (Plasmodium falciparum, UniProt Q8IIJ9) (assay: primary screen, percent inhibition; read by cleavage of a fluorogenic dipeptide substrate; higher = more effect of the substance).
DPAP1, sequence (Q8IIJ9 whole entry, looked up): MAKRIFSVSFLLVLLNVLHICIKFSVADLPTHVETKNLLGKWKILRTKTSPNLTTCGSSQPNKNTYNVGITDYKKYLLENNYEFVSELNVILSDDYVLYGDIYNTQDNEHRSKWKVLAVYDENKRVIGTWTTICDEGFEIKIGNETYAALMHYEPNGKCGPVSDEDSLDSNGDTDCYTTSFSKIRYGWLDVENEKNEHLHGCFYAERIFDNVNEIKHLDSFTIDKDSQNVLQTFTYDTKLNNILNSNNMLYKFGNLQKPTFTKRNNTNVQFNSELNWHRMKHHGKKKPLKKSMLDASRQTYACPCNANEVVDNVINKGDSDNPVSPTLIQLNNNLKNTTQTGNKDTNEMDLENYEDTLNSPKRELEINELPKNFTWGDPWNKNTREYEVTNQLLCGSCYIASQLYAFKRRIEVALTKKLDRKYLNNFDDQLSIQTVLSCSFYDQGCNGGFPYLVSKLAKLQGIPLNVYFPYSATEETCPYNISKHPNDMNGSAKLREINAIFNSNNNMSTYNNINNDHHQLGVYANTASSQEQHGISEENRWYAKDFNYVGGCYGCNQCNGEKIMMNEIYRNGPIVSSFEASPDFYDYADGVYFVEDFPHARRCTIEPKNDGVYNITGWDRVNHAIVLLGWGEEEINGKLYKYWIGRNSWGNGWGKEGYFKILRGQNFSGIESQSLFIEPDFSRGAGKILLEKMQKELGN
Parameters: species or system P. falciparum D10 trophozoite lysates; single well
For `COc1ccc(-c2cc(C(=O)N3CCN(C4CCCCC4)CC3)[nH]n2)cc1`, the “% Inhibition @ 10 uM” value was -1.3%.
For `CC(=O)c1c(O)cc(C)o/c1=N\c1cc(Cl)ccc1C`, the “% Inhibition @ 10 uM” value was -0.736%.
In the case of `Cc1nc2ccccc2n1S(=O)(=O)c1ccc(Br)cc1`, the “% Inhibition @ 10 uM” value is reported as 1.65%.
`Cc1cn2c(nc1=O)OC1C(O)C(CO)OC12` (centres unmarked) was tested, and the “% Inhibition @ 10 uM” value was -4.18%.
In the case of `CC(C)OCCCNC(=O)CCCCCn1c(=O)[nH]c2ccsc2c1=O`, the “% Inhibition @ 10 uM” value is reported as -0.972%.
With `CC(C)c1ccc2[nH]c3c(c2c1)CCCC3O` (centres unmarked) the “% Inhibition @ 10 uM” value was 3.54%.
For `COc1cccc(CNCc2c(C(=O)O)c(C)n(Cc3ccc(F)cc3)c2C)c1`, the “% Inhibition @ 10 uM” value was -9.31%.
In the case of `CCn1c(C(=O)O)c(CNCc2cc(OC)ccc2OC)c2ccc(C)cc21`, the “% Inhibition @ 10 uM” value is reported as -2.39%.
With `CNC(=O)C1CCCN(c2nn3c(=O)cc(C)nc3s2)C1` (centres unmarked) the “% Inhibition @ 10 uM” value was -3.34%.
`O=C1CCCC2=C1C(c1ccccc1Cl)NC(Nc1nc3ccccc3s1)=N2` (centres unmarked) was tested, and the “% Inhibition @ 10 uM” value was 29.3%.
`Nc1nc2ccccn2c1C(=O)c1ccccc1` was tested, and the “% Inhibition @ 10 uM” value was 6.27%.
With `CCN(CC)C(=O)C1CCCN(Cc2ccc(F)c(F)c2)C1` (centres unmarked) the “% Inhibition @ 10 uM” value was -1.77%.
For `CCOc1ccc(N(C(C)C(=O)NC2CCCC2)S(C)(=O)=O)cc1` (centres unmarked), the “% Inhibition @ 10 uM” value was -1.38%.
`COc1ccc(OC)c(-c2[nH]c3c(C#N)cnn3c2NC2CCC(C)CC2)c1` (centres unmarked) was tested, and the “% Inhibition @ 10 uM” value was 0.596%.
In the case of `COc1cc(CNCCSc2nnnn2C)ccc1OCc1ccc(Cl)nc1`, the “% Inhibition @ 10 uM” value is reported as -3.49%.
With `Cc1onc(-c2ccccc2)c1C(=O)N1CCC(C)CC1` the “% Inhibition @ 10 uM” value was -1.79%.
In the case of `OC12C3CCCC14CCCC2(CCC3)O4` (centres unmarked), the “% Inhibition @ 10 uM” value is reported as -4.67%.
With `CSc1ccc(CN2CCN(c3cccc(C(F)(F)F)c3)CC2)cc1` the “% Inhibition @ 10 uM” value was -1.86%.
With `CN(C)CCCN(CCCN(C)C)CC1=CC[C@H]2C[C@@H]1C2(C)C` the “% Inhibition @ 10 uM” value was -0.0494%.
With `Cc1nnc(SCc2cccs2)nc1O` the “% Inhibition @ 10 uM” value was -1.43%.
`CCOc1ccc(C(=O)Nc2ccc(-c3nc4ncccc4o3)cc2)cc1Cl` was tested, and the “% Inhibition @ 10 uM” value was -4.82%.
For `O=C(Nc1ccc(Cc2ccc(NC(=O)c3cccs3)cc2)cc1)c1cccs1`, the “% Inhibition @ 10 uM” value was 2.4%.
In the case of `O=C(CCc1nnc2n(Cc3ccccc3)c(=O)c3ccccc3n12)NCCc1ccccc1`, the “% Inhibition @ 10 uM” value is reported as -0.692%.
`Cc1ccc2c(=O)c(C(=O)c3cccc(Cl)c3)cn(CC(=O)NC(C)C)c2n1` was tested, and the “% Inhibition @ 10 uM” value was 1.68%.
`COc1cc(OC)cc(C(=O)Nc2ccc(Br)cc2C(F)(F)F)c1` was tested, and the “% Inhibition @ 10 uM” value was -8.76%.
In the case of `C=CCn1c(SCc2ccccc2)nc(O)cc1=O`, the “% Inhibition @ 10 uM” value is reported as 1.38%.
In the case of `O=C(NCCCN1CCOCC1)c1cc(-c2ccccc2)c(N2CCCCC2)s1`, the “% Inhibition @ 10 uM” value is reported as -6.64%.
`Cc1cc(C(=O)N2CCOCC2)n(-c2ccccc2)n1` was tested, and the “% Inhibition @ 10 uM” value was 3.19%.
`CCCN1CCC(N2CCC(C)CC2)CC1` was tested, and the “% Inhibition @ 10 uM” value was -3.74%.
`CC1CCCCN1C(=O)NCc1noc2ccccc12` (centres unmarked) was tested, and the “% Inhibition @ 10 uM” value was 0.0244%.
With `O=C(c1cc2ccccc2oc1=O)n1nnc2ccccc21` the “% Inhibition @ 10 uM” value was -9.83%.
For `CCOC(=O)c1c(C)n(OCc2ccccc2)c2ccc3nonc3c12`, the “% Inhibition @ 10 uM” value was 1.16%.
For `Cc1nn(C)c(C)c1NC(=O)c1ccc(Cl)cc1`, the “% Inhibition @ 10 uM” value was -0.85%.
`COc1cc(-c2nnc3n(Cc4ccccc4)c(=O)c4ccccc4n23)cc(OC)c1O` was tested, and the “% Inhibition @ 10 uM” value was -1.94%.
`O=C(O)COc1ccc(/C=C/c2nc3n(n2)C=COc2ccccc2-3)cc1` was tested, and the “% Inhibition @ 10 uM” value was 5.88%.
With `Cc1ccc(OCC(=O)Nc2sc3c(c2C#N)CCC3)cc1C` the “% Inhibition @ 10 uM” value was -0.996%.
In the case of `O=C(c1ccc(-c2ccccc2)cc1)N1CCN(Cc2ccc(Cl)cc2)CC1`, the “% Inhibition @ 10 uM” value is reported as -11.3%.
`O=C(/C=C/c1ccccc1)OCCNC1=NS(=O)(=O)c2ccccc21` was tested, and the “% Inhibition @ 10 uM” value was 2.03%.
`CC1(C)CC(=O)C(/C=N/c2ccc(N)cc2)=C(O)C1` was tested, and the “% Inhibition @ 10 uM” value was -7.02%.
With `CCOc1cc(-c2c(C)c(C)nc(N)c2C#N)ccc1O` the “% Inhibition @ 10 uM” value was -1.79%.
For `O=C(O)CCC(=O)Nc1ccc(C(=O)c2ccccc2)cc1`, the “% Inhibition @ 10 uM” value was 2.69%.
With `Cc1cc(/N=C/c2nc(-c3ccc(Br)cc3)oc2O)no1` the “% Inhibition @ 10 uM” value was 9.09%.
For `Cn1c(C(=O)O)c(CNC2CCCCCC2)c2ccccc21`, the “% Inhibition @ 10 uM” value was 0.277%.
With `Cc1ccc(-n2nc3c(=O)n(CCCC(=O)NCCC4=CCCCC4)nc(C)c3c2C)cc1` the “% Inhibition @ 10 uM” value was -0.128%.
For `CCN1CCC(NC(c2ccccc2)c2ccc(Cl)cc2)CC1` (centres unmarked), the “% Inhibition @ 10 uM” value was 1.57%.
For `COc1ccc(Br)cc1/C=C1\N=C(c2cccc(C)c2OC)OC1=O`, the “% Inhibition @ 10 uM” value was -1.29%.
In the case of `CC(C)(C)NS(=O)(=O)c1ccc(NC(=O)c2ccc(C(C)(C)C)cc2)cc1`, the “% Inhibition @ 10 uM” value is reported as -5.91%.
`N#CC1=C(N)OC2=C(C(=O)CC(c3ccccc3)C2)C1c1ccco1` (centres unmarked) was tested, and the “% Inhibition @ 10 uM” value was -1.98%.
In the case of `Cc1cccc2sc(N(CCN(C)C)C(=O)c3ccc4ncsc4c3)nc12`, the “% Inhibition @ 10 uM” value is reported as -1.14%.
In the case of `O=[N+]([O-])c1ccc2nc3c4ccccc4n(CCCCN4CCOCC4)c3cc2c1`, the “% Inhibition @ 10 uM” value is reported as 6.48%.
`Cn1c(SCc2nc(-c3ccc(Br)cc3)no2)nnc1C1CCCCC1` was tested, and the “% Inhibition @ 10 uM” value was 0.415%.
In the case of `Cc1cc(C)c(S(=O)(=O)N2CCN(C)CC2)c(C)c1`, the “% Inhibition @ 10 uM” value is reported as 0.526%.
For `CCOc1ccc(N(C(C)C(=O)Nc2ccc(NC(C)=O)cc2)S(C)(=O)=O)cc1` (centres unmarked), the “% Inhibition @ 10 uM” value was 13.4%.
`Nc1cc(O)nc(SCc2nc(-c3cccs3)no2)n1` was tested, and the “% Inhibition @ 10 uM” value was -4.78%.
With `Cc1ccc(-c2noc(CCC(=O)Nc3ccc(C)cn3)n2)cc1` the “% Inhibition @ 10 uM” value was 2.42%.
`CC(C)Cc1cc(C(=O)N2CCN(Cc3noc(CCC(=O)N(C)Cc4ccccc4)n3)CC2)no1` was tested, and the “% Inhibition @ 10 uM” value was 4.94%.
With `CCOc1ccc2ncc(S(=O)(=O)c3ccccc3)c(N3CCC4(CC3)OCCO4)c2c1` the “% Inhibition @ 10 uM” value was -3.5%.
With `CCOc1ccc(C2=CC(C(C(C)=O)C(C)=O)c3ccccc3O2)cc1` (centres unmarked) the “% Inhibition @ 10 uM” value was -5.2%.
For `COc1ccc(NC2CC3CCC2C3)cc1OC` (centres unmarked), the “% Inhibition @ 10 uM” value was -3.6%.
With `COc1ccc(CN2CCN(C(=O)c3ccco3)CC2)c(OC)c1` the “% Inhibition @ 10 uM” value was 3.95%.
In the case of `COc1cc(C2C(C#N)=C(N)OC3=C2C(=O)CCC3)ccc1OCc1cccc(F)c1` (centres unmarked), the “% Inhibition @ 10 uM” value is reported as -11.5%.
For `COc1ccc(-c2c3c(=O)n(C)c(=O)n(C)c3cn2-c2ccccc2O)cc1`, the “% Inhibition @ 10 uM” value was 4.54%.
In the case of `O=C1NC(c2ccc(Br)cc2)=N/C1=C/c1ccccc1`, the “% Inhibition @ 10 uM” value is reported as -0.591%.
For `CC(C)C[C@H](NC(=O)c1ccc2c(c1)CCC2C)C(=O)NCC#N` (some centres unmarked), the “% Inhibition @ 10 uM” value was -3.69%.
With `O=C(N/C(=C\c1ccco1)C(=O)N1CCOCC1)c1ccccc1Cl` the “% Inhibition @ 10 uM” value was 20.2%.
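Further: 30 min substrate incubation versus DMSO and 10 µM JCP410 controls.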
